# Experimental data from ChEMBL document CHEMBL5724801, “EUbOPEN Chemogenomics Library - Multiplex” (2024).
# For part of its entries the source gives two or more results. The list is limited to them. An entry can have further records. The values listed for one entry are repeated measurements in other runs, samples, wells, individuals or studies.
# Key:
# Type in all cases: toxicity, cell-based
# [1] = test system: HEK-293T; test: Multiplex assay against HEK293T; conditions: human
# Outline: (§1)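 Imaging took place on a CQ1 microscope at 37°C and 5% CO2 once compound had been added to live cells stained at seeding with Hoechst33342, BioTracker Green Microtubule Cytoskeleton Dye, MitoTracker Red and Annexin V Alexa Fluor 680. CellPathfinder machine-learning gating classed cells as Hoechst high-intensity objects or normal cells, classed normal cells as having healthy, pyknosed or fragmented nuclei, and classed pyknosed cells as mitotic or apoptotic. Tubulin, mitochondrial-mass and membrane-permeability phenotypes are per cents of the healthy-nucleus cells.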
# [2] = test system: U2OS; test: Multiplex assay against U2OS; conditions: human; outline: as §1
# [3] = test system: Fibroblast; test: Multiplex assay against human fibroblast; outline: as §1
# [4] = 12 h, 1 µM, compound concentration 1 uM
# [5] = 12 h, 10 µM, compound concentration 10 uM
# [6] = 24 h, 10 µM, compound concentration 10 uM
# [7] = 48 h, 1 µM, compound concentration 1 uM
# [8] = 48 h, 10 µM, compound concentration 10 uM
# [9] = 24 h, 1 µM, compound concentration 1 uM
compound,measurement,setting,value
O=C1NC(NC23CC4CC(CC(C4)C2)C3)=N/C1=C\c1ccc2ncsc2c1,Population Healthy Nuclei (%),[1]; [4],28.22% and 9.29%
same,Population Hoechst High Intensity Objects (%),[2]; [5],47.97% and 15.68%
same,Population Hoechst High Intensity Objects (%),[2]; [6],39.89% and 13.1%
same,Population Pyknosed Nuclei (%),[2]; [6],23.61% and 6.78%
same,Population Pyknosed Nuclei (%),[2]; [7],5.32% and 21.47%
same,Population Pyknosed Nuclei (%),[2]; [8],28.45% and 8.17%
O=C(O)CCC/C=C\CC1C(O)CC(O)C1/C=C/C(O)COc1cccc(Cl)c1 (centres undefined) [CLOPROSTENOL],Population Fragmented Nuclei (%),[2]; [5],28% and 9%
same,Population Mitotic Cells (%),[2]; [5],7% and 54%
C=CCN1C[C@H](C(=O)N(CCCN(C)C)C(=O)NCC)C[C@@H]2c3cccc4[nH]cc(c34)C[C@H]21 [CABERGOLINE],Population Pyknosed Nuclei (%),[3]; [4],7% and 33%
same,Population Mitotic Cells (%),[2]; [4],13% and 42%
same,Population Mitotic Cells (%),[2]; [6],34% and 11%
O=c1nc2[nH]c3ccccc3nc-2c(=O)[nH]1 [ALLOXAZINE],Population Mitochondria Different-Phenotype (%),[3]; [8],3% and 17%
CC(C)(c1ccc(O)cc1)c1ccc(O)cc1 [BISPHENOL A],Population Apoptotic (%),[3]; [9],9.76% and 40.91%
same,Population Mitochondria Different-Phenotype (%),[3]; [8],15.93% and 2.78%
same,Population Healthy Nuclei (%),[1]; [4],58.23% and 14.46%
same,Population Tubulin-Different-Phenotype (%),[1]; [4],5.49% and 29.17%
same,Population Healthy Nuclei (%),[1]; [5],58.61% and 18.49%
same,Population Tubulin-Different-Phenotype (%),[1]; [5],5.67% and 29.63%
same,Population Pyknosed Nuclei (%),[1]; [9],20.53% and 70.56%
same,Total Cell Count,[1]; [9],566 and 180
same,Population Tubulin-Different-Phenotype (%),[1]; [6],14.68% and 1.79%
same,Population Mitochondria Different-Phenotype (%),[1]; [7],10.46% and 32.08%
same,Population Pyknosed Nuclei (%),[1]; [7],8.97% and 47.26%
same,Population Tubulin-Different-Phenotype (%),[1]; [7],1.28% and 46.23%
same,Total Cell Count,[1]; [7],1339 and 203
same,Population Apoptotic (%),[1]; [8],4.35% and 15.28%
same,Population Tubulin-Different-Phenotype (%),[1]; [8],0.27% and 15.79%
same,Total Cell Count,[1]; [8],1309 and 255
CCCCC[C@H](O)/C=C/[C@H]1[C@H](O)CC(=O)[C@@H]1CCCCCCC(=O)O [ALPROSTADIL],Population Tubulin-Different-Phenotype (%),[3]; [4],12% and 38%
same,Population Fragmented Nuclei (%),[3]; [5],7% and 25%
same,Population Hoechst High Intensity Objects (%),[3]; [5],5% and 16%
same,Population Hoechst High Intensity Objects (%),[3]; [6],2% and 13%
same,Population Tubulin-Different-Phenotype (%),[3]; [6],19% and 59%
same,Population Hoechst High Intensity Objects (%),[3]; [8],2% and 16%
same,Population Membrane Permeable-Phenotype (%),[3]; [8],1% and 13%
CC(C)[C@H](C(=O)Nc1ccc(C(=O)NO)cc1)c1ccccc1 [AR-42],Population Mitotic Cells (%),[3]; [8],68.52% and 10.42%
same,Population Tubulin-Different-Phenotype (%),[3]; [8],2.04% and 14.52%
same,Population Tubulin-Different-Phenotype (%),[1]; [4],5.71% and 28.57%
same,Population Healthy Nuclei (%),[1]; [5],53.33% and 17.02%
same,Population Mitochondria Different-Phenotype (%),[1]; [5],25.69% and 3.12%
Cl.N=C(N)NC(=O)Cc1c(Cl)cccc1Cl [GUANFACINE HYDROCHLORIDE],Population Tubulin-Different-Phenotype (%),[3]; [6],19% and 58%
N#Cc1c(Oc2cccc(OS(=O)(=O)CCCC(F)(F)F)c2)cccc1C(F)(F)F,Population Membrane Permeable-Phenotype (%),[3]; [5],1% and 13%
same,Population Fragmented Nuclei (%),[3]; [6],13% and 40%
same,Population Membrane Permeable-Phenotype (%),[3]; [6],4% and 18%
same,Population Membrane Permeable-Phenotype (%),[3]; [7],1% and 13%
same,Population Membrane Permeable-Phenotype (%),[3]; [8],2% and 23%
same,Population Hoechst High Intensity Objects (%),[1]; [5],10% and 40%
same,Population Hoechst High Intensity Objects (%),[1]; [6],13% and 47%
same,Population Hoechst High Intensity Objects (%),[1]; [8],5% and 24%
NC1=NC(=O)/C(=C2\CCNC(=O)c3[nH]c4ccccc4c32)N1,Population Fragmented Nuclei (%),[3]; [4],18.79% and 3.67%
same,Population Apoptotic (%),[3]; [5],7.02% and 23.08%
same,Population Apoptotic (%),[3]; [7],12.5% and 44.44%
same,Population Mitochondria Different-Phenotype (%),[3]; [7],15.66% and 1.37%
same,Population Healthy Nuclei (%),[1]; [4],62.27% and 19.71%
same,Population Mitochondria Different-Phenotype (%),[1]; [4],47.46% and 14.81%
same,Population Tubulin-Different-Phenotype (%),[1]; [4],5.93% and 29.63%
same,Population Healthy Nuclei (%),[1]; [5],62.42% and 13.99%
same,Population Tubulin-Different-Phenotype (%),[1]; [5],6.47% and 30%
same,Total Cell Count,[1]; [9],603 and 156
same,Population Tubulin-Different-Phenotype (%),[1]; [7],0.96% and 27.34%
same,Total Cell Count,[1]; [7],1327 and 200
same,Population Pyknosed Nuclei (%),[1]; [8],11.96% and 38.97%
same,Population Tubulin-Different-Phenotype (%),[1]; [8],1.3% and 25.6%
same,Total Cell Count,[1]; [8],813 and 215
CCCCC1=NC2(CCCC2)C(=O)N1Cc1ccc(-c2ccccc2-c2nnn[nH]2)cc1 [IRBESARTAN],Population Fragmented Nuclei (%),[3]; [6],9% and 36%
C[C@H](NC(=O)CNC(=O)c1cccc(Cl)c1)c1ccccc1,Population Mitotic Cells (%),[2]; [6],9% and 28%
COc1cc(NC(=O)CCN2CCC(OC(=O)Nc3ccccc3-c3ccccc3)CC2)c(Cl)cc1CNC[C@H](O)c1ccc(O)c2[nH]c(=O)ccc12 [BATEFENTEROL],Population Pyknosed Nuclei (%),[3]; [8],22% and 6%
same,Population Fragmented Nuclei (%),[1]; [5],90% and 5%
same,Population Healthy Nuclei (%),[1]; [5],0% and 72%
same,Population Mitochondria Different-Phenotype (%),[1]; [5],0% and 87%
same,Population Mitotic Cells (%),[1]; [5],0% and 47%
same,Population Tubulin-Different-Phenotype (%),[1]; [5],0% and 67%
same,Total Cell Count,[1]; [5],16 and 303
same,Population Apoptotic (%),[1]; [6],0% and 56%
same,Population Fragmented Nuclei (%),[1]; [6],87% and 6%
same,Population Healthy Nuclei (%),[1]; [6],12% and 73%
same,Population Hoechst High Intensity Objects (%),[1]; [6],33% and 7%
same,Population Mitotic Cells (%),[1]; [6],0% and 43%
same,Total Cell Count,[1]; [6],12 and 357
same,Population Fragmented Nuclei (%),[1]; [8],58% and 11%
same,Population Healthy Nuclei (%),[1]; [8],25% and 76%
same,Population Mitotic Cells (%),[1]; [8],0% and 42%
same,Total Cell Count,[1]; [8],13 and 427
COc1ccc2c(c1OCc1ccccc1)C[C@@H](C(=O)O)N(C(=O)C(c1ccccc1)c1ccccc1)C2 [OLODANRIGAN],Population Mitotic Cells (%),[2]; [9],12% and 44%
same,Population Mitotic Cells (%),[2]; [6],16% and 50%
CC(N)C1CCC(C(=O)Nc2ccncc2)CC1 (centres undefined),Population Apoptotic (%),[3]; [4],5.88% and 17.65%
same,Population Pyknosed Nuclei (%),[3]; [4],23.08% and 7.33%
same,Population Pyknosed Nuclei (%),[3]; [6],15.35% and 4.97%
same,Population Mitochondria Different-Phenotype (%),[3]; [7],12.84% and 2.63%
same,Population Mitotic Cells (%),[3]; [7],69.23% and 16.67%
same,Population Mitochondria Different-Phenotype (%),[3]; [8],14.98% and 4.24%
same,Population Mitochondria Different-Phenotype (%),[1]; [4],29.21% and 7.32%
same,Population Tubulin-Different-Phenotype (%),[1]; [4],1.87% and 19.51%
same,Population Apoptotic (%),[1]; [5],3.63% and 16.67%
same,Population Tubulin-Different-Phenotype (%),[1]; [5],6.29% and 38.3%
same,Total Cell Count,[1]; [5],501 and 158
same,Total Cell Count,[1]; [9],623 and 180
same,Total Cell Count,[1]; [6],730 and 191
same,Population Tubulin-Different-Phenotype (%),[1]; [7],0.63% and 14.69%
same,Total Cell Count,[1]; [7],1286 and 271
same,Population Apoptotic (%),[1]; [8],3.11% and 18.64%
same,Total Cell Count,[1]; [8],1515 and 220
CC[C@@H](C)Nc1nc(C)nc2c(-c3ccc(OC)nc3C)c(C)nn12 [PEXACERFONT],Population Membrane Permeable-Phenotype (%),[3]; [4],2% and 15%
same,Population Membrane Permeable-Phenotype (%),[3]; [6],2% and 20%
same,Population Membrane Permeable-Phenotype (%),[3]; [7],1% and 26%
same,Population Mitotic Cells (%),[3]; [8],12% and 47%
O=C(O)C(F)(F)F.O=C1NC(=O)/C(=C/c2c[nH]c(=O)c(-c3ccc(N4CCNCC4)nc3)c2)S1,Population Fragmented Nuclei (%),[3]; [5],17.2% and 5.16%
same,Population Tubulin-Different-Phenotype (%),[3]; [5],8.55% and 25.73%
same,Population Mitochondria Different-Phenotype (%),[3]; [8],16.67% and 2.93%
same,Population Tubulin-Different-Phenotype (%),[3]; [8],1.79% and 17.56%
same,Population Healthy Nuclei (%),[1]; [4],58.84% and 13.18%
same,Population Membrane Permeable-Phenotype (%),[1]; [4],0.45% and 11.76%
same,Population Mitochondria Different-Phenotype (%),[1]; [4],40.36% and 11.76%
same,Population Tubulin-Different-Phenotype (%),[1]; [4],5.83% and 17.65%
same,Population Mitochondria Different-Phenotype (%),[1]; [5],34.29% and 9.26%
same,Population Tubulin-Different-Phenotype (%),[1]; [5],3.33% and 33.33%
same,Population Pyknosed Nuclei (%),[1]; [9],22.16% and 71.22%
same,Population Tubulin-Different-Phenotype (%),[1]; [9],16.52% and 2.78%
same,Total Cell Count,[1]; [9],583 and 139
same,Population Pyknosed Nuclei (%),[1]; [7],11.19% and 35.8%
same,Population Tubulin-Different-Phenotype (%),[1]; [7],1.51% and 36.79%
same,Total Cell Count,[1]; [7],1386 and 176
same,Population Tubulin-Different-Phenotype (%),[1]; [8],0.44% and 12.35%
same,Total Cell Count,[1]; [8],1795 and 399
Cn1cc(C(=O)OCC2CCN(CCNS(C)(=O)=O)CC2)c2ccccc21,Population Mitotic Cells (%),[2]; [6],7% and 35%
same,Population Mitotic Cells (%),[2]; [7],8% and 42%
same,Population Fragmented Nuclei (%),[2]; [8],30% and 9%
Cc1ccc(OCC(O)C(C)NC(C)C)c2c1CCC2.Cl (centres undefined),Population Hoechst High Intensity Objects (%),[1]; [5],3% and 18%
same,Population Mitotic Cells (%),[2]; [4],36% and 9%
